# Assay results taken from the supplement of paper PMC10037445.
# Values joined by “and” are separate entries in the source; they are usually repeats but may differ in a detail not shown here. Equal values may be shown once. Whole data set: some 2,900 compounds, median “IRF Lucia reporter activity, fold change vs agonist alone” near 0.9, cut for the highest 2% near 2.8. Some of the results follow.
# Key:
# [1] = system: RAW-Dual; experiment: IRF Lucia reporter activity, fold change vs agonist alone; cytotoxicity flag (confluency mask): not cytotoxic; higher = enhanced IRF activity
# Outline: (§1)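 Cytotoxic wells were those whose IncuCyte confluency was below 70% of agonist controls in both mask sets. The cells were RAW-Dual macrophages at 50,000 cells/well in DMEM on 384-well plates, dosed with 50 nL of library stock by pin tool, stimulated with a PRR agonist 1 h later, and kept at 37 °C, 5% CO2 for 20 hours. IRF and NF-κB reporter activity, as fold change over agonist-alone wells, came from supernatant read by QuantiLuc luminescence and QuantiBlue absorbance, respectively.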
# [2] = system: RAW-Dual; experiment: IRF Lucia reporter activity, fold change vs agonist alone; higher = enhanced IRF activity; conditions: agonist: MPLA (TLR4) […]
# Outline: as §1
# [3] = system: RAW-Dual; experiment: IRF Lucia reporter activity, fold change vs agonist alone; cytotoxicity flag (confluency mask): cytotoxic (confluency <70% of control); higher = enhanced IRF activity
# Outline: as §1
# [4] = agonist: 3'3'-cGAMP (STING) 10 ug/mL
# [5] = library stock concentration (final ~1000-fold dilution): 10 mM, cytotoxicity flag (confluency mask): not cytotoxic
structure (smiles),measurement,setting,value
CCN1CCCC1CNC(=O)c1cc(S(N)(=O)=O)ccc1OC (stereo not given) (library stock concentration (final ~1000-fold dilution): 10 mM),IRF Lucia reporter activity,[1]; [4],1.01 and 0.953
same,IRF Lucia reporter activity,[1]; agonist: LPS (TLR4) 0.1 ug/mL,1.28 and 1.11
Cl.Nc1c2c(nc3ccccc13)CCCC2,IRF Lucia reporter activity,[2]; [5],1.03
Cl.Nc1c2c(nc3ccccc13)CCCC2 (library stock concentration (final ~1000-fold dilution): 10 mM),IRF Lucia reporter activity,[1]; [4],0.549
same,IRF Lucia reporter activity,[1]; agonist: LPS (TLR4) 0.1 ug/mL,1.24
Cc1cc(N2CCN(C3CNC(C(=O)N4CCSC4)C3)CC2)n(-c2ccccc2)n1 (stereo not given) (library stock concentration (final ~1000-fold dilution): 10 mM),IRF Lucia reporter activity,[1]; [4],0.982
same,IRF Lucia reporter activity,[1]; agonist: LPS (TLR4) 0.1 ug/mL,1.22
Cc1cc(N2CCN(C3CNC(C(=O)N4CCSC4)C3)CC2)n(-c2ccccc2)n1 (stereo not given),IRF Lucia reporter activity,[2]; [5],1.02
CC1(C)C=C(CN2C/C(=C\c3ccc(F)cc3)C(=O)/C(=C/c3ccc(F)cc3)C2)C(C)(C)N1O (library stock concentration (final ~1000-fold dilution): 10 mM),IRF Lucia reporter activity,[1]; [4],0.118
same,IRF Lucia reporter activity,[1]; agonist: LPS (TLR4) 0.1 ug/mL,0.531
CC1(C)C=C(CN2C/C(=C\c3ccc(F)cc3)C(=O)/C(=C/c3ccc(F)cc3)C2)C(C)(C)N1O,IRF Lucia reporter activity,[2]; [5],0.967
Nc1ncn(C2CC(O)C(CO)O2)c(=O)n1 (stereo not given) (library stock concentration (final ~1000-fold dilution): 10 mM),IRF Lucia reporter activity,[1]; [4],1.18
same,IRF Lucia reporter activity,[1]; agonist: LPS (TLR4) 0.1 ug/mL,1.48
Nc1ncn(C2CC(O)C(CO)O2)c(=O)n1 (stereo not given),IRF Lucia reporter activity,[2]; [5],1.46
COc1ccc(-c2oc3c(CC=C(C)C)c(O)cc(O)c3c(=O)c2OC2OC(C)C(O)C(O)C2O)cc1 (stereo not given),IRF Lucia reporter activity,"[2]; library stock concentration (final ~1000-fold dilution): 10 mM, cytotoxicity flag (confluency mask): cytotoxic (confluency <70% of control)",0.839
COc1ccc(-c2oc3c(CC=C(C)C)c(O)cc(O)c3c(=O)c2OC2OC(C)C(O)C(O)C2O)cc1 (stereo not given) (library stock concentration (final ~1000-fold dilution): 10 mM),IRF Lucia reporter activity,[3]; [4],0.425
same,IRF Lucia reporter activity,[3]; agonist: LPS (TLR4) 0.1 ug/mL,0.805
NNC(=O)c1ccncc1,IRF Lucia reporter activity,[2]; [5],0.949
NNC(=O)c1ccncc1 (library stock concentration (final ~1000-fold dilution): 10 mM),IRF Lucia reporter activity,[1]; [4],1.02
same,IRF Lucia reporter activity,[1]; agonist: LPS (TLR4) 0.1 ug/mL,0.747
CN(C(=O)CCCOc1ccc2[nH]c(=O)ccc2c1)C1CCCCC1 (library stock concentration (final ~1000-fold dilution): 10 mM),IRF Lucia reporter activity,[1]; [4],0.965
same,IRF Lucia reporter activity,[1]; agonist: LPS (TLR4) 0.1 ug/mL,0.574
CN(C(=O)CCCOc1ccc2[nH]c(=O)ccc2c1)C1CCCCC1,IRF Lucia reporter activity,[2]; [5],0.922
Cl.OC1C=C2CCN3Cc4cc5c(cc4C(C1O)C23)OCO5 (stereo not given),IRF Lucia reporter activity,[2]; [5],1.34
Cl.OC1C=C2CCN3Cc4cc5c(cc4C(C1O)C23)OCO5 (stereo not given) (library stock concentration (final ~1000-fold dilution): 10 mM),IRF Lucia reporter activity,[1]; [4],0.206
same,IRF Lucia reporter activity,[1]; agonist: LPS (TLR4) 0.1 ug/mL,1.56
CCN(CC)CCNC(=O)c1ccc(N)cc1.Cl (library stock concentration (final ~1000-fold dilution): 10 mM),IRF Lucia reporter activity,[1]; [4],1.01
same,IRF Lucia reporter activity,[1]; agonist: LPS (TLR4) 0.1 ug/mL,1.12
CCN(CC)CCNC(=O)c1ccc(N)cc1.Cl,IRF Lucia reporter activity,[2]; [5],1.06
Cc1ccc(S(=O)(=O)OCC(=O)Nc2ccc(C(=O)O)c(O)c2)cc1,IRF Lucia reporter activity,[2]; [5],0.969
Cc1ccc(S(=O)(=O)OCC(=O)Nc2ccc(C(=O)O)c(O)c2)cc1 (library stock concentration (final ~1000-fold dilution): 10 mM),IRF Lucia reporter activity,[1]; [4],0.977
same,IRF Lucia reporter activity,[1]; agonist: LPS (TLR4) 0.1 ug/mL,0.0308
O=C(CCc1ccc(O)cc1)c1c(O)cc(OC2OC(CO)C(O)C(O)C2O)cc1O (stereo not given) (library stock concentration (final ~1000-fold dilution): 10 mM),IRF Lucia reporter activity,[1]; [4],0.953
same,IRF Lucia reporter activity,[1]; agonist: LPS (TLR4) 0.1 ug/mL,1.02
Cc1nnc(NC(=O)c2nc(S(=O)(=O)Cc3ccc(F)cc3)ncc2Cl)s1 (library stock concentration (final ~1000-fold dilution): 10 mM),IRF Lucia reporter activity,[1]; [4],0.0452
same,IRF Lucia reporter activity,[1]; agonist: LPS (TLR4) 0.1 ug/mL,0.308
C=C(C)C1CCC2(C(=O)O)CCC3(C)C(CCC4C5(C)CCC(O)C(C)(C)C5CCC43C)C12 (stereo not given),IRF Lucia reporter activity,[2]; [5],0.981
C=C(C)C1CCC2(C(=O)O)CCC3(C)C(CCC4C5(C)CCC(O)C(C)(C)C5CCC43C)C12 (stereo not given) (library stock concentration (final ~1000-fold dilution): 10 mM),IRF Lucia reporter activity,[1]; [4],1.04
same,IRF Lucia reporter activity,[1]; agonist: LPS (TLR4) 0.1 ug/mL,1.02
CCCCCOc1ccc(-c2cc(-c3ccc(C(=O)NC4CC(O)C(O)NC(=O)C5C(O)C(C)CN5C(=O)C(C(O)CC(N)=O)NC(=O)C(C(O)C(O)c5ccc(O)c(OS(=O)(=O)O)c5)NC(=O)C5CC(O)CN5C(=O)C(C(C)O)NC4=O)cc3)no2)cc1 (stereo not given),IRF Lucia reporter activity,"[2]; library stock concentration (final ~1000-fold dilution): 10 mM water, cytotoxicity flag (confluency mask): not cytotoxic",1.1
CCCCCOc1ccc(-c2cc(-c3ccc(C(=O)NC4CC(O)C(O)NC(=O)C5C(O)C(C)CN5C(=O)C(C(O)CC(N)=O)NC(=O)C(C(O)C(O)c5ccc(O)c(OS(=O)(=O)O)c5)NC(=O)C5CC(O)CN5C(=O)C(C(C)O)NC4=O)cc3)no2)cc1 (stereo not given) (library stock concentration (final ~1000-fold dilution): 10 mM water),IRF Lucia reporter activity,[1]; [4],0.651
same,IRF Lucia reporter activity,[1]; agonist: LPS (TLR4) 0.1 ug/mL,0.974
CN1CCN(C(=O)c2cc3cc(Cl)ccc3[nH]2)CC1,IRF Lucia reporter activity,[2]; [5],1.13
CN1CCN(C(=O)c2cc3cc(Cl)ccc3[nH]2)CC1 (library stock concentration (final ~1000-fold dilution): 10 mM),IRF Lucia reporter activity,[1]; [4],0.958
same,IRF Lucia reporter activity,[1]; agonist: LPS (TLR4) 0.1 ug/mL,0.89
O=C(O)C1(Cc2cccc(Nc3nccs3)n2)CCC(Oc2cccc(Cl)c2F)CC1 (stereo not given),IRF Lucia reporter activity,[2]; [5],0.949
O=C(O)C1(Cc2cccc(Nc3nccs3)n2)CCC(Oc2cccc(Cl)c2F)CC1 (stereo not given) (library stock concentration (final ~1000-fold dilution): 10 mM),IRF Lucia reporter activity,[1]; [4],0.686
same,IRF Lucia reporter activity,[1]; agonist: LPS (TLR4) 0.1 ug/mL,0.779
N#CC1(c2ccc(NC(=O)c3cccnc3NCc3ccncc3)cc2)CCCC1,IRF Lucia reporter activity,[2]; [5],1.01
N#CC1(c2ccc(NC(=O)c3cccnc3NCc3ccncc3)cc2)CCCC1 (library stock concentration (final ~1000-fold dilution): 10 mM),IRF Lucia reporter activity,[1]; [4],0.173
same,IRF Lucia reporter activity,[1]; agonist: LPS (TLR4) 0.1 ug/mL,1.14
Cl.Cl.c1cc(-c2nc3ccc(OCCCN4CCCC4)cc3o2)ccc1OCCCN1CCCC1 (library stock concentration (final ~1000-fold dilution): 1 mM),IRF Lucia reporter activity,[1]; [4],0.861
same,IRF Lucia reporter activity,[1]; agonist: LPS (TLR4) 0.1 ug/mL,1.07
CC(ONC(=O)c1cc(C(F)(F)F)cc(C(F)(F)F)c1)C(=O)Nc1ccc(Cl)cc1 (stereo not given) (library stock concentration (final ~1000-fold dilution): 10 mM),IRF Lucia reporter activity,[1]; [4],0.52
same,IRF Lucia reporter activity,[1]; agonist: LPS (TLR4) 0.1 ug/mL,0.52
